The text below walks through data of ChEMBL document CHEMBL4888484, “Replenishing the malaria drug discovery pipeline: Screening and hit evaluation of the MMV Hit Generation Library 1 (HGL1) against asexual blood stage Plasmodium falciparum ,using a nano luciferase reporter read-out” (2022).

“And” between values parts separate entries of the source, which are not always exact repeats. Identical values can stand only once. Out of some 150,000 compounds screened, about 540 (0.36%) showed an effect of 50% or more. The list shows a part of the results.

The test system of the test is Plasmodium falciparum. Briefly: Primary screen in NF54 nanoGlo assay, in single point, at 2uM, 72h; a lower Z score goes with more inhibition. Format: functional, Erythrocyte. Particulars: timepoint 72 hour.

What is called % Inhibition is the drop in the measured response relative to a control, in per cent. Consider `CC(C)C[C@@H](CO)Nc1nccc(C(F)(F)F)n1`, for which the “% Inhibition” value is on record as -11% and the Z score came out at 1.54. Take `CCN(CC)C(=O)c1coc(CN2C(=O)COc3ccc(C(=O)COc4ccc(OC)cc4)cc32)n1`: the “% Inhibition” value was -25% and the Z score was 2.38. Consider `O=C1COc2cc(C(=O)N(CCc3ccccc3)Cc3ccccc3)ccc2N1`, for which the “% Inhibition” value stood at 9% and the Z score was -1.18. For `C[C@H]1CCN(c2nnnn2Cc2ccnn2C)CC12CCC2` the same measures were -6% and 0.98. On the same counts, the results for `Cc1cc(C(F)(F)F)cnc1N[C@H]1[C@@H]2COC[C@@H]21` are 2% and -0.36. In the case of `Cc1ccc(Nc2[nH]c(NCc3ccc4c(c3)OCO4)nc3nncc2-3)cc1C`, the “% Inhibition” value amounted to 1% and the Z score was -0.19. On the same counts, the results for `COc1cccc(-c2ccnc3nc(N4CCOCC4)[nH]c(=O)c23)c1` are -16% and 2.29.

Turning to `Cc1ccc(C)c(S(=O)(=O)Nc2cccn3nc(C4CCC4)nc23)c1`, the “% Inhibition” value is reported as -5% and the Z score turned out to be 0.88. On to `N#Cc1ccc(C(=O)N[C@H]2CCN(c3cc(-c4ccc(Cl)cc4)n[nH]3)C2)cc1`, for which the “% Inhibition” value is -14% and the Z score is given as 1.46. On the same counts, the results for `Cn1nccc1COCC(=O)Nc1cccc2[nH]cnc12` are -12% and 1.06. On the same counts, the results for `CCOc1ccc(Nc2cnnc(O)n2)cc1` are 3% and -0.4. As for `CC(C)c1cc(C(=O)Oc2ccc(-c3nnco3)cc2)c2ccccc2n1`, the “% Inhibition” value was -7% and the Z score turned out to be 0.69. On the same counts, the results for `COc1ccccc1CN1Cc2cc(NS(=O)(=O)c3ccc(F)cc3)ccc2O[C@@H](C)C1=O` are 1% and -0.1. Turning to `C[C@@H]1CN(C(=O)c2cccc3ccc(O)nc23)C[C@H](C)N1C`, the “% Inhibition” value is on record as -35% and the Z score is 4.09. On to `CCc1nnc(NCc2ccc3c(c2)OCCO3)s1`, for which the “% Inhibition” value was -12% and the Z score came out at 2.25. On the same counts, the results for `CC1Cc2ccccc2N1C(=O)C1CCCCC1C(=O)NCC#N` (centres undefined) are 3% and -0.4. For `CCn1cc(N(CC(C)C)C(=O)C(F)F)cn1`, the “% Inhibition” value amounted to 2% and the Z score is -0.3.

As for `CCOCCNC(=O)CC(=O)Nc1cc(Cl)ccc1C`, the “% Inhibition” value stood at 2% and the Z score is reported as -0.31. For `COc1cccc(-c2oncc2CN2CCN(C(C)=O)CC2)c1` the same measures were 10% and -1.91. Consider `CC(C)NC(=O)C1Cc2cc(C(F)(F)F)ccc2N2CCN(Cc3ccc(F)cc3)CC12` (centres undefined), for which the “% Inhibition” value was 4% and the Z score is listed as -0.45. In the case of `CN(C)c1ccc(-c2noc([C@H]3C[C@@H]3c3ccc(F)cc3F)n2)cn1`, the “% Inhibition” value was -13% and the Z score is listed as 1.28. For `CCS(=O)(=O)Oc1ccc(Cl)cc1CN(CCN(C)C)C(=O)C(C)C`, the “% Inhibition” value is reported as 2% and the Z score is on record as -0.31.

For the molecule `Cn1cc(-c2ccc(F)c(C(=O)N3CC[C@H](NS(C)(=O)=O)C3)c2)cn1`, the “% Inhibition” value is recorded as -11% and the Z score worked out at 2.14. For `CN(C)Cc1cc(C(=O)N[C@H](c2cccs2)C2(CO)CCC2)no1` the same measures were 1% and -0.09. As for `O=C(COc1ccc(Br)cc1Br)N(Cc1ccccc1)C1CC1`, the “% Inhibition” value was -11% and the Z score is listed as 1.02. On the same counts, the results for `Brc1cnc2[nH]c(C3CC3)nc2c1` are 0% and 0.01. Regarding `Cc1noc(C)c1CNC(=O)c1cnccn1`, the “% Inhibition” value is recorded as -2% and the Z score was determined as 0.2. On the same counts, the results for `Cc1ccc2oc(N[C@@H]3C(=O)NCC3(C)C)nc2c1` are 3% and -0.59. As to `O=C(N1CCOCC2(CCC2)C1)C12CCC(CC1)C2`, the “% Inhibition” value is -22% and the Z score came out at 3.39. For `COC1(c2noc(C(=O)N3CCC[C@H](C)C3)n2)CCC1` the same measures were 0% and 0.01. On the same counts, the results for `Cc1ccc(CNCc2scnc2C)c(OCC2CC2)c1` are -4% and 0.5. On the same counts, the results for `COCCN1C(=O)C[C@H](CNc2nccn3nc(C)cc23)[C@H]1c1cnn(C)c1` are -8% and 1.4. Turning to `CN(C)CCN(C)c1ccc(Br)cc1NCc1cnn(C)n1`, the “% Inhibition” value is reported as -12% and the Z score is recorded as 1.77. In the case of `Cc1ccc2nccc(C(=O)N3CCC[C@H](Cn4cc(C(C)(C)N)nn4)C3)c2c1`, the “% Inhibition” value is -6% and the Z score is reported as 0.76. For `C[C@H]1CN(CCC(=O)N2CCc3ccccc3C2)CC[C@]1(O)C1CC1`, the “% Inhibition” value is listed as 8% and the Z score is recorded as -1.5. For `Nc1nc2c(c(N3CC=CC3)n1)CCN(C(=O)N1CCCCC1)CC2` the same measures were -2% and 0.24. For `C[C@H]1CN(C(=O)c2cccnc2C2CC2)CCN1C(=O)c1cccnc1C1CC1` the same measures were -4% and 0.69. Take `COc1c(F)cc(C[C@@H]2CC[C@H](CN3CCCOCC3)O2)cc1F`: the “% Inhibition” value was -6% and the Z score is reported as 0.79.

`CCC1C(C)CCN1S(=O)(=O)CCc1noc2ccccc12` (centres undefined): the “% Inhibition” value was -15% and the Z score is on record as 2. For `C[C@H]1COCCN1C(=O)CN1C(=O)COc2ccc(Cl)cc21`, the “% Inhibition” value is -8% and the Z score worked out at 1.26. As for `COc1ccc(NC(=O)c2ccccc2NCc2cc3c(cc2Br)OCO3)cc1`, the “% Inhibition” value is reported as -34% and the Z score amounted to 4.01. On the same counts, the results for `C#CC(C)NC(=O)NC1CCC(C(=O)OC)C1` (centres undefined) are -6% and 0.81. `CC(C)c1nc(N2CCN(Cc3ccc(C(=O)O)cc3)CC2)no1`: the “% Inhibition” value is reported as 0% and the Z score is 0.07. `CN(C)CCOC(=O)c1ccc(F)cc1`: where the note is “2 µM”, the “% Inhibition” value is 4% and -8%. As to `Cc1cc(C(=O)NCc2ccccn2)nn1-c1ccc(F)cc1F`, the “% Inhibition” value was -2% and the Z score was found to be 0.22. On the same counts, the results for `Cc1nc(C(=O)Nc2cccc(N3CCCCC3)c2)nn1-c1ccccc1Cl` are -23% and 2.3. On the same counts, the results for `Cc1ccc2c(NC(=O)c3cccs3)cccc2n1` are -10% and 2. As for `CC[C@H]1c2cccn2CCN1C(=O)CN(C)S(=O)(=O)c1ccc(Br)cc1`, the “% Inhibition” value was 1% and the Z score is on record as -0.17. For `COC(=O)c1ccc(Cl)c(CN2CC3OCCN(C)C3C2)c1` (centres undefined), the “% Inhibition” value is -6% and the Z score turned out to be 0.56. `COCCN(Cc1ccc(OC)c(OC)c1)Cc1ccc(C(O)(c2ccc(OC)cc2)c2ccc(OC)cc2)o1`: the “% Inhibition” value stood at 3% and the Z score is -0.46.

Consider `CCC[C@H]1CN(C(=O)CNC)C[C@@H]1Nc1cc(C2CC2)ncn1`, for which the “% Inhibition” value is recorded as -6% and the Z score worked out at 0.98.

On to `COc1ccc2c(c1)Oc1ccccc1N=C2N1CCN(C(=O)Nc2cccc(C(F)(F)F)c2)[C@@H](C)C1`, for which the “% Inhibition” value was determined as 2% and the Z score is reported as -0.19.

For the molecule `CNC(=O)Cc1nc(CN2CCNC(=O)[C@@H]2c2ccc(F)cc2C)cs1`, the “% Inhibition” value is recorded as -11% and the Z score stood at 2.04.

With `O=S1(=O)CC[C@H](Cc2nc(C3CC3)n[nH]2)C1`, the “% Inhibition” value was -17% and the Z score came to 2.1. Take `O=C(Nc1ccccc1C1CC1)N[C@@H]1CCNC1`: the “% Inhibition” value was determined as 10% and the Z score was -1.93. For `Cc1cc(-c2ccccc2)nc(Oc2cccc(C(F)(F)F)c2)c1S(=O)(=O)c1ccc(Cl)cc1` the same measures were -8% and 1.21. `CCc1nc(C)c(CN2CC[C@H](CC(F)(F)F)C2)o1`: the “% Inhibition” value is reported as 1% and the Z score was -0.06. On the same counts, the results for `CCn1cc(CCN2CCN(S(=O)(=O)c3cccs3)CC2)c2cccnc21` are -8% and 0.91. In the case of `Cc1ccc(S(=O)(=O)N2CC(n3nccn3)C2)cc1Cl`, the “% Inhibition” value was -7% and the Z score was 0.81. As to `Cc1nc(CC(C)C)cc(C(=O)N(C)Cc2cc(C(C)C)no2)n1`, the “% Inhibition” value is listed as -5% and the Z score is 0.93. On the same counts, the results for `CCc1nnc(Cn2cc(CN3C[C@@H](C)O[C@@H](C)C3)nn2)o1` are 10% and -1.71. On the same counts, the results for `CCOc1ccccc1CNc1ccc2nccnc2c1` are 1% and -0.09. Consider `Clc1ccc(-c2nnc(-c3ccccc3)nc2N2CCOCC2)cc1`, for which the “% Inhibition” value is -13% and the Z score was found to be 1.47. On the same counts, the results for `O=S(=O)(CCC(F)(F)F)N1CCC[C@H](Cc2nc(C3CC3)no2)C1` are 5% and -0.72. On the same counts, the results for `Cn1c(NC(=O)CC2=CCCCC2)nnc1C1CC1` are 9% and -1.

For `CC1NC(=O)C(C)N(Cc2cnc3ccccc3c2)C1C` (centres undefined), the “% Inhibition” value came to 0% and the Z score is on record as -0.06. For `CN(CCC(=O)NCc1cccc(Cl)c1)C[C@H]1COCCO1` the same measures were -8% and 1.03. On the same counts, the results for `CCc1nc(-c2cccc(NC(=O)c3ccccc3)c2)no1` are -24% and 4.14. With `CO[C@@H](C)c1nc(COc2ccc(C(C)(C)C)cc2)n[nH]1`, the “% Inhibition” value is reported as -20% and the Z score turned out to be 2.29. For `O=C(c1cnn(-c2ccccc2)c1)N1CCC[C@H]1c1nnc2ccccn12` the same measures were 19% and -2.42.

In the case of `CC(Oc1ccccc1)C(=O)Nc1cccc(NC(=O)C(C)Oc2ccccc2)n1` (centres undefined), the “% Inhibition” value is -9% and the Z score amounted to 1.22. With `COc1cn(CC(=O)NC(C)C)c(CN2CCCCC2)cc1=O`, the “% Inhibition” value is given as -1% and the Z score is reported as 0.24. Take `O=C(Cn1nnnc1CN1CCCCCC1)N[C@@H]1COC2(CCCC2)C1`: the “% Inhibition” value turned out to be 5% and the Z score is reported as -0.62. On the same counts, the results for `O=C(NC[C@H](O)c1ccc2c(c1)CCO2)c1ccco1` are 12% and -1.51.

`O=C(c1ccccc1-c1ccccc1)N1CCN(S(=O)(=O)[C@H]2CCS(=O)(=O)C2)CC1`: the “% Inhibition” value was found to be 5% and the Z score is given as -0.7.

As for `C[C@@H](CN(C)c1cnccn1)N1CCOCC1`, the “% Inhibition” value came out at 2% and the Z score is on record as -0.37. On the same counts, the results for `Cc1c(N[C@@H](C)C(C)C)cccc1C(=O)N(C)CC#N` are -5% and 0.63.

As to `C[C@H](C(=O)NCc1ccccc1F)C1CCN(C(=O)c2cc3ccccc3[nH]2)CC1`, the “% Inhibition” value is on record as -3% and the Z score was determined as 0.6. On the same counts, the results for `COc1cccc(-c2cc(C(=O)O)cc(S(=O)(=O)N3CCCCCC3)c2)c1OC` are -6% and 0.79. Take `O=C(NC[C@H]1CCCCN1S(=O)(=O)c1cc(F)ccc1F)Nc1ccccc1`: the “% Inhibition” value was -4% and the Z score is recorded as 0.43.

As for `O=S(=O)(NC[C@H]1COCc2nc3ccccc3n21)c1ccccc1`, the “% Inhibition” value is reported as -10% and the Z score was 1.94. On the same counts, the results for `C[C@@H](c1nc(C(C)(C)C)no1)N1CCCC1` are -9% and 1.77.

As to `C[C@@H](c1nc2ccccc2c(=O)[nH]1)N1CCN(C(=O)c2ccco2)CC1`, the “% Inhibition” value is given as -2% and the Z score was determined as 0.35.

Take `NC(=O)CC1CCN(CC(=O)NC2CCCCCC2)CC1`: the “% Inhibition” value was -7% and the Z score was found to be 1.13. On the same counts, the results for `O=C(NCCN1CCOCC1)[C@H]1CC(=O)N(c2n[nH]c3ccccc23)C1` are -3% and 0.43.
